In PubChem BioAssay AID686978 (National Center for Advancing Translational Sciences (NCATS), 2013):
Several values for one entry are separate records, joined by “and”; a condition that tells them apart may be missing. Equal values may be shown once. Among all 420,000 compounds or so, about 64,000 (15%) were called active. Inconclusive results, whose numbers are uncertain, are shown with a selection of clear calls. The call rests on the fitted dose curve; in most records, active means well fitted inhibition curve with a large enough effect; inconclusive means small, poorly fitted or top-dose-only effect; inactive means flat fitted curve, though single readings scatter. Potencies beside an inconclusive call are fits to weak or partial responses and may not hold up.

Assay: qHTS for Inhibitors of human tyrosyl-DNA phosphodiesterase 1 (TDP1): qHTS in cells in absence of CPT; further: nearly all actives have a fitted effect of over 55% in size
Conditions: DT40 Tdp1-/- hTDP1 cells, no CPT, ATP luminescence, 48 h; activity change, negative = growth inhibition: at 46.2 µM (top of the series) unless noted
Procedure, shortened: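 Stably hTDP1-transfected Tdp1-null chicken DT40 cells were treated with library compounds minus camptothecin and grown for at least 48 hr at 37 °C, after which cellular ATP was quantified by luminescence.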
On the % scale 0 is the no-effect control and ±100 the full control effect; potency means the concentration at half of the fitted maximal effect; tags describe the fitted curve by direction and shape.

Structure (SMILES) | activity change, negative = growth inhibition | Potency
CC(=O)OCCc1[nH]c2ccccc2c1C | inactive: -12.9% | 
Cc1ccc(C)c(N2CCN(C(=O)c3cc4ccc5cccnc5c4[nH]3)CC2)c1 |  | inconclusive: 7.31 µM [inhibitor, full curve, poor fit]
CC(C)CC(=O)Nc1cc(C(F)(F)F)ccc1N1CCOCC1 | inactive: -14.8% | 
O=C1N(CCCN2C(=O)C3(OCCO3)c3ccccc32)c2ccccc2C12OCCO2 |  | inconclusive: 23.1 µM [inhibitor, single point]
COc1ccc2c(CN3CCN(C(C)=O)CC3)cc(=O)oc2c1 | inactive: 0.613% | 
CCCCCC(=O)N1C[C@H](n2cc(COC(=O)c3ccccc3)nn2)[C@@H](O)C[C@@H]1c1ccc(OC)cc1 |  | inconclusive: 18.4 µM [inhibitor, single point]
S=C(NCCCN1CCOCC1)N1CCN(c2nc(-c3ccccc3)cs2)CC1 |  | active: 23.1 µM
COc1ccc(OC)c(NC(=O)C2(C)CCN2CCc2ccccc2)c1 (configuration not stated) |  | active: 16.4 µM
Cc1ccc(CN2CCNC(=O)C2CC(=O)N(C)C2CCOCC2)cc1 (configuration not stated) | inactive: 13% | 
CC(NCC(=O)Nc1ccccc1C(=O)NC1CC1)c1ccc(S(C)(=O)=O)cc1 (configuration not stated) | inactive: -22.3% | 
Cc1ccccc1NC(=O)CNC(=O)N1CC(=O)Nc2ccccc21 | inactive: 4.95% | 
Cn1c(=O)c2c(SCC(=O)N3CCOCC3)nc(-c3ccccc3Cl)nc2n(C)c1=O |  | inconclusive: 29.1 µM [inhibitor, single point]
S=c1sscc1-c1ccccc1 | inactive: -26.2% | 
Cc1cc(C)cc(NC(=O)CN2C(=O)CSc3ccc(S(=O)(=O)N(C)C)cc32)c1 |  | active: 16.4 µM
CCCCN=CC1=C(O)CC(c2ccccc2)CC1=O (configuration not stated) |  | inconclusive: 20.6 µM [inhibitor, single point]
CCS(=O)(=O)c1ccc(O)c(NC(=O)CC2(CC(=O)O)CCCC2)c1 | inactive: -9.89% | 
COc1ccc(C)cc1NC(=O)C(OC(=O)c1cc(C)oc1C)c1ccccc1 (configuration not stated) |  | inconclusive: 29.1 µM [inhibitor, partial curve]
Cc1ccc(C)c(C(=O)OCC(=O)Nc2ccc(N3CCOCC3)cc2)c1 | inactive: -13.2% | 
CCOC(=O)C/C(C)=N\Nc1ccc([N+](=O)[O-])cc1[N+](=O)[O-] |  | inconclusive: 18.4 µM [inhibitor, single point]
c1ccc(-c2ccccc2-c2nc(-c3ccncc3)no2)cc1 | inactive: -28.4% | 
Cc1ccc(S(=O)(=O)NCCCCCC(=O)Nc2ccccc2C)cc1 |  | inconclusive: 11.6 µM [inhibitor, partial curve]
COc1cc(C(=O)NCC(c2ccc(N(C)C)cc2)N2CCc3ccccc32)cc(OC)c1OC (configuration not stated) |  | active: 18.4 µM
O=c1c2ccccc2nc(SCCN2CCCCC2)n1CCc1ccccc1 |  | active: 20.6 µM
Clc1cccc(C2Nc3cccc4cccc(c34)N2)c1Cl | inactive: -14% | 

Structure (SMILES) | activity change, negative = growth inhibition | Potency
COc1cccc(Nc2ncc3ncc(=O)n(C[C@H]4CCCO4)c3n2)c1 |  | inconclusive: 29.1 µM [inhibitor, single point]
Cc1ccc(CN2C(=O)c3ccccc3Sc3ccc(C(=O)NC4CCCCC4)cc32)cc1 | inactive: -17.6% | 
COc1cc(C(=O)Nc2nnc(S(=O)(=O)N(C)c3ccccc3)s2)cc(OC)c1OC |  | inconclusive: 23.1 µM [inhibitor, single point]
Cc1cc2c3c(c1C)C(=O)C(=O)N3C(C)(C)CC2C (configuration not stated) |  | inconclusive: 29.1 µM [inhibitor, single point]
CCC1(C)NC(=O)N(CC(=O)Nc2sc3c(c2C(=O)OC)CCCCC3)C1=O (configuration not stated) |  | inconclusive: 29.1 µM [inhibitor, single point]
O=C(c1ccccc1)c1ccc(C(=O)N2CCCC(C(F)(F)F)C2)cc1 (configuration not stated) |  | inconclusive: 23.1 µM [inhibitor, single point]
CC(C)(C)OC(=O)CNC(=O)c1[nH]cnc1C(=O)NC(c1ccccc1)c1ccccc1 |  | inconclusive: 29.1 µM [inhibitor, single point]
CC(C)(C)CC(=O)Nc1ccc(-c2cn3cccnc3n2)cc1 | inactive: -14.5% | 
O=c1c2sccc2n(Cc2cc(=O)n3ccccc3n2)c(=O)n1-c1ccccc1 | inconclusive: -34.8% [inhibitor] | 
COc1ccc(CNC(=O)CC[C@H]2O[C@@H](n3ccc(=O)[nH]c3=O)[C@H](O)[C@@H]2O)cc1 | inactive: 35.8% | 
O=CN1CCN(C(=O)COc2ccc(Cl)cc2Br)CC1 | inactive: -23.2% | 
CCCCn1c(SCC(=O)/C(C#N)=C(\C)N)nc2ccccc2c1=O |  | inconclusive: 18.4 µM [inhibitor, single point]
Cc1ccc(NC(N)=S)cc1C | inconclusive: -30.7% [inhibitor] | 
O=[N+]([O-])c1ccc(/C=N/Nc2nc(N3CCCCCC3)nc(N3CCCCCC3)n2)o1 |  | inconclusive: 29.1 µM [inhibitor, single point]
CCc1ccc(C2=CC(c3cc(Br)ccc3F)n3ncnc3N2)cc1 (configuration not stated) |  | active: 18.4 µM
COc1ccc(-c2noc(-c3ccccc3C(=O)Nc3cccnc3)n2)cc1OC |  | inconclusive: 14.6 µM [inhibitor, partial curve]
CCOc1ccc(Nc2nnc(SCc3nc4ccccc4c(=O)[nH]3)s2)cc1 |  | active: 18.4 µM
CC(/C=N/n1c(-c2cccnc2)n[nH]c1=S)=C\c1ccccc1 |  | inconclusive: 23.1 µM [inhibitor, single point]
COC(=O)CNC(=O)C12CC3CC(C1)CC(c1ccc(C)cc1)(C3)C2 | inactive: 5.03% | 
Cc1ccc(C(=O)NCC(=O)N(C)CC(=O)Nc2ccccc2Br)s1 | inactive: -9.75% | 
COc1cccc(C(=O)NCCSCc2ccccc2Cl)c1 |  | inconclusive: 32.6 µM [inhibitor, single point]
Cc1ccc2cc(C#N)c(NCc3ccccc3)nc2c1 | inactive: 11% | 
Oc1ccccc1-c1nnc(COc2ccc(Cl)cc2Cl)o1 |  | inconclusive: 23.1 µM [inhibitor, single point]
CCC(C)(C)NC(=O)C(c1ccc(OC)cc1)N(Cc1ccccc1)C(=O)CCC(=O)Nc1cc(C)on1 (configuration not stated) |  | inconclusive: 23.1 µM [inhibitor, partial curve, poor fit]

Structure (SMILES) | activity change, negative = growth inhibition | Potency
CSc1ccc(CN2CCC2(C)C(=O)Nc2ccc3c(c2)OCO3)cc1 (configuration not stated) |  | inconclusive: 18.4 µM [inhibitor, single point]
Cc1ccc(-c2nc3[nH]c(=O)cc(NC(=O)c4cccs4)n3n2)cc1 |  | inconclusive: 6.51 µM [inhibitor, partial curve, poor fit]
CC(NC(=O)c1ccc(Cl)cc1)c1nnc(SCC(=O)NC2=NCCS2)n1C (configuration not stated) | inactive: -5.47% | 
Cc1ccn2c(Nc3ccc(F)cc3)c(-c3ccc(C)o3)nc2c1 |  | inconclusive: 18.4 µM [inhibitor, single point]
O=C(NC1CC(=O)N(c2ccc(F)cc2)C1)c1cccs1 (configuration not stated) | inactive: -16.2% | 
Clc1nc(-c2ccccn2)nc2scc(-c3ccccc3)c12 |  | inconclusive: 18.4 µM [inhibitor, single point]
Cc1csc(NC(=O)CSc2sc3c(O)cc(=O)[nH]c3c2C#N)n1 | inactive: 8.08% | 
CC1(C)C2CCC1(CS(=O)(=O)Nc1ccc(S(=O)(=O)NC3CCCCC3)cc1)C(=O)C2 (configuration not stated) |  | inconclusive: 13 µM [inhibitor, partial curve]
Cn1cc(CN2CCC(n3nccc3NC(=O)c3ccccc3Cl)CC2)c2ccccc21 |  | inconclusive: 18.4 µM [inhibitor, single point]
CN(CCC1CCOCC1)C(=O)C1CCC(=O)N(CCc2cccc(F)c2)C1 (configuration not stated) | inactive: -9.45% | 
N#CC1(C#N)[C@@H](C(=O)C23CC4CC(CC(C4)C2)C3)C12CCOCC2 | inactive: -20.6% | 
CN1CCN(C(c2ccccc2)c2ccccc2)CC1 |  | inactive and inconclusive: 16.4 µM [inhibitor, single point] and inconclusive: 29.1 µM [inhibitor, single point]
O=[N+]([O-])c1ccccc1-n1cnc2ccccc21 |  | inconclusive: 13 µM [inhibitor, partial curve, poor fit]
CSc1nc(N)c(C#N)c(-c2ccccc2Cl)c1C#N |  | inconclusive: 29.1 µM [inhibitor, single point]
COc1ccc(CNC(=O)C2CCN(c3nc4ccccc4[nH]3)CC2)c(OC)c1 |  | inconclusive: 29.1 µM [inhibitor, single point]
Fc1ccc(-c2nn(-c3ccccc3)cc2CNCc2ccccc2)cc1 |  | inconclusive: 18.4 µM [inhibitor, single point]
CC(Nc1ccccc1CO)C(=O)Nc1cccc(Cl)c1Cl (configuration not stated) | inactive: -0.995% | 
CC1=NN(c2ccccc2)C(=O)/C1=C/c1cccc(C)c1 |  | inconclusive: 29.1 µM [inhibitor, single point]
O=C(CSc1nccn1-c1cccc(F)c1)NC1CCCC1 |  | inconclusive: 29.1 µM [inhibitor, single point]
COc1ccc(C2=NN(CN3C(=O)C(=O)c4ccccc43)C(c3ccc(C)cc3)C2)cc1 (configuration not stated) |  | inconclusive: 20.6 µM [inhibitor, single point]
Cc1cc(C)c2[nH]c(=O)c(C(c3nnnn3Cc3ccc4c(c3)OCO4)N3CCCCC3)cc2c1 (configuration not stated) |  | inconclusive: 18.4 µM [inhibitor, single point]
Cc1cc(Nc2ccc(C)c(C)c2)c2ccccc2n1 |  | inconclusive: 20.6 µM [inhibitor, single point]
COC(=O)c1ccc(OCC2c3cc(OC)c(OC)cc3CCN2C(=O)C2CC2)cc1 (configuration not stated) |  | inconclusive: 25.9 µM [inhibitor, single point]
O=C(N/N=C/c1ccc([N+](=O)[O-])o1)c1cc2c(ccc3ccccc32)o1 |  | inconclusive: 6.51 µM [inhibitor, partial curve]
